Measured values published in the supplement of paper PMC3334620.
In all, about 33,000 sequences were measured (“E-score (-0.5 to 0.5)”: median about -0.012, highest 2% from about 0.27 on). Some of the results follow.

The sequences below were run against T1, Vhr1 (UniProt P40522) (assay: PBM E-score (8-mer binding enrichment) (E-score (-0.5 to 0.5)); higher = stronger / more preferred TF binding; most listed sequences are background and not binding sites). Settings: protein concentration: 200 nM; construct: GST-full length.
T1 sequence: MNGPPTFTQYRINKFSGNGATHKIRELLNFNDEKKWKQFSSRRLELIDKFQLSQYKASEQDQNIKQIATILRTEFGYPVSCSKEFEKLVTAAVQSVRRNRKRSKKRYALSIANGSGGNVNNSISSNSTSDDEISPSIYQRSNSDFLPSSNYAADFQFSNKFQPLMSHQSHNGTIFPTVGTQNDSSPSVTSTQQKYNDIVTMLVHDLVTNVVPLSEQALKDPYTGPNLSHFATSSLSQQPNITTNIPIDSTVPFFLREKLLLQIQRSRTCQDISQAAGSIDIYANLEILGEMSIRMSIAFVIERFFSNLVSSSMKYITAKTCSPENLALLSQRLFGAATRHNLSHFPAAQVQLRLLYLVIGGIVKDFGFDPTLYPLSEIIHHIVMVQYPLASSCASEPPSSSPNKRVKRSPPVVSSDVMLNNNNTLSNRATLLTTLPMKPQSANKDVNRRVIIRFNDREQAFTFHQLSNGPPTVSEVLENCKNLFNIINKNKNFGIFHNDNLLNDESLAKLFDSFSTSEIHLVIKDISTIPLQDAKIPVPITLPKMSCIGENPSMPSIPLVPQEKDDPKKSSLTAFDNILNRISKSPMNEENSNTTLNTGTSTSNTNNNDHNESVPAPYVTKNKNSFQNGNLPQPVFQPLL
Description: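 Universal 'all 10-mer' protein binding microarrays (Agilent AMADID 015681) probed with GST-tagged S. cerevisiae TFs (full-length or DBD) made by in vitro transcription/translation (PURExpress), about 100-200 nM. Bound TF was detected with fluorescent anti-GST. Each ungapped 8-mer (which stands for itself and its reverse complement) is scored by the PBM enrichment score (E-score), a modified Wilcoxon-Mann-Whitney statistic from -0.5 to +0.5, computed with the Universal PBM Analysis Suite. Scale: above 0.35 generally sequence-specific binding.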

| Sequence | PBM E-score |
| --- | --- |
| ACTTAAGA | -0.0666 |
| CGCCTTGC | 0.00127 |
| TGACGTAA | -0.212 |
| AGGATTTG | -0.0325 |
| CTCGTCAG | 0.0896 |
| CCGCTCTC | -0.153 |
| ACATGCCA | 0.0538 |
| AATAATTC | -0.0658 |
| ATCCCTGC | -0.0685 |
| ACCCAGAA | 0.168 |
| AAATTAGG | -0.0705 |
| AGGACTAC | 0.067 |
| ATTTAGGA | 0.0363 |
| AAGAGTCC | -0.149 |
| CAGGCACC | -0.144 |
| GCCTCTGA | -0.0365 |
| ATAATGAA | 0.0974 |
| AGGAGATA | -0.111 |
| GGGCCGTA | -0.123 |
| ACGCGGAG | 0.157 |
| CGGTCCCC | -0.112 |
| GACCAGAC | -0.141 |

| Sequence | PBM E-score |
| --- | --- |
| ATAGCAGG | 0.0907 |
| AACTCAGG | -0.0804 |
| CGCTGTAG | 0.0714 |
| CGTCTTAG | -0.307 |
| CATCTGTA | -0.12 |
| AGTGGCTC | 0.13 |
| AAGAACTA | -0.0721 |
| AGGTACAG | -0.0563 |
| CACCAACA | 0.187 |
| GATATTGA | 0.0222 |
| TCGAGTCA | 0.399 |
| TAGAAACA | -0.169 |
| GAATTTAA | -0.119 |
| GTCGCCAA | 0.0702 |
| TCACAACA | 0.12 |
| ATCGCAGC | 0.0887 |
| GCTGTAAA | -0.274 |
| ATACACAA | 0.0897 |
| AAACGGGG | -0.077 |
| CCGGCAGC | 0.142 |
| AGGCTCCG | 0.00274 |
| CTACGCAG | 0.0899 |

| Sequence | PBM E-score |
| --- | --- |
| CGTCTGGC | 0.0545 |
| AGGAAGGA | -0.299 |
| AACCCTTA | -0.0405 |
| TACAGCAA | 0.134 |
| CGGGTTCC | -0.0343 |
| AACTGAAC | -0.0865 |
| CCAGCTGA | 0.137 |
| CATAAAAC | -0.0799 |
| GGGGGAGA | -0.0487 |
| ATTCGACA | -0.0266 |
| AGGACGGC | -0.0936 |
| AGCCGCGG | 0.178 |
| GCTAGGCA | -0.298 |
| ACACCTTC | 0.141 |
| CCGCCTGC | 0.0663 |
| CCACTCAA | 0.133 |
| ATATGACA | 0.152 |
| CTACCACA | 0.079 |
| CATGGCGA | 0.184 |
| ATGTTGGG | -0.0871 |
| CTTACTAC | -0.0344 |
| ATCGCCCC | 0.0247 |

| Sequence | PBM E-score |
| --- | --- |
| GGAGGGAC | -0.0584 |
| CAGGACTG | 0.0646 |
| CCCCGGAC | -0.0118 |
| CACCCGGA | 0.265 |
| CTTACAGC | -0.158 |
| CCACTCAG | 0.0902 |
| CAACGGAG | 0.00986 |
| GTCTCCAA | -0.0678 |
| CCGACGTA | -0.12 |
| GTACTAAA | -0.0304 |
| CCTCCTAC | -0.133 |
| ATTTTTGG | -0.23 |
| ACTAGTGC | -0.0374 |
| CACACCCA | 0.256 |
| ACACTAAC | 0.144 |
| CGATAGAC | 0.0252 |
| AGGGGACT | -0.0607 |
| GTGCGCAA | 0.0475 |
| ACCTTTGG | -0.0844 |
| GAGTTAGC | 0.0211 |
